Reference: article PMC5748856 (The Journal of Experimental Medicine, 2018)

Molecular target: purified HLA-A*02:01 class I molecules (human (endogenous in JY))
Assay: radioligand binding

IC50: > 38.7 µM
Binder: RKSAPSTGGV [H3.3WT_(26–35) peptide]
